pIC50: −log10 of the molar value. Blank lines part the entries; values can stand above or below the compound they belong to.
Legend:
[1] = system: AsPC-1 cells (K-Ras G12D); assay: 2D cell growth inhibition assay, AsPC-1; type: cell-based; conditions: AsPC-1, K-Ras G12D, 6 days, absolute IC50
[2] = system: NCI-H460 cells (K-Ras Q61H); assay: 3D cell growth inhibition assay, NCI-H460; type: cell-based; conditions: Homo sapiens, 144 h, 6 days, absolute IC50
[3] = system: TCC-PAN2 cells (K-Ras G12R); assay: 3D cell growth inhibition assay, TCC-PAN2; type: cell-based; conditions: 144 h, 6 days, absolute IC50
MKN-1 cells (K-Ras WT) = assay: 3D cell growth inhibition assay, MKN-1; type: cell-based; conditions: Homo sapiens, 144 h, MKN-1, K-Ras WT, 6 days, absolute IC50
AGS cells (K-Ras G12D) = assay: 2D cell growth inhibition assay, AGS; type: cell-based; conditions: 6 days, absolute IC50
SW620 cells (K-Ras G12V) = assay: 2D cell growth inhibition assay, SW620; type: cell-based; conditions: 6 days, absolute IC50
[4] = system: p-ERK in TCC-PAN2 cells (K-Ras G12R); assay: Phospho-ERK1/2(THR202/TYR204) HTRF assay, TCC-PAN2; type: cell-based; conditions: 2 hours incubation
[5] = system: p-ERK in NCI-H358 cells (K-Ras G12C); assay: Phospho-ERK1/2(THR202/TYR204) HTRF assay, NCI-H358; type: cell-based; conditions: Homo sapiens, 2 hours incubation
[6] = system: p-ERK in NCI-H460 cells (K-Ras Q61H); assay: Phospho-ERK1/2(THR202/TYR204) HTRF assay, NCI-H460; type: cell-based; conditions: Homo sapiens, 2 hours incubation
[7] = system: p-ERK in SW620 cells (K-Ras G12V); assay: Phospho-ERK1/2(THR202/TYR204) HTRF assay, SW620; type: cell-based; conditions: 2 hours incubation
[8] = system: p-ERK in NCI-H747 cells (K-Ras G13D)
[9] = system: p-ERK in AGS cells (K-Ras G12D); assay: Phospho-ERK1/2(THR202/TYR204) HTRF assay, AGS; type: cell-based; conditions: 2 hours incubation
[10] = system: p-ERK in MKN-1 cells (K-Ras WT amplification); assay: Phospho-ERK1/2(THR202/TYR204) HTRF assay, MKN-1; type: cell-based; conditions: Homo sapiens; MKN-1, K-Ras WT, 2 hours incubation

IC50 ([1]; Homo sapiens, ASPC1, 144 h): 37.7 nM | IC50 [2]: 83 nM | IC50 (MKN-1 cells (K-Ras WT)): 9.09 nM | IC50 (AGS cells (K-Ras G12D); Homo sapiens, 144 h): 2.17 nM | IC50 (SW620 cells (K-Ras G12V); Homo sapiens, SW-620, 144 h): 3.11 nM
SMILES: C#Cc1c(F)ccc2cc(O)cc(-c3ncc4c(N5CCOC[C@H](F)C5)nc(OC[C@@]56CCCN5C[C@H](F)C6)nc4c3F)c12 (single isomer, unassigned) [Compound 12B]
IC50 [3]: 184 nM

IC50 ([1]; Homo sapiens, ASPC1, 144 h): 6190 nM | IC50 (AGS cells (K-Ras G12D); Homo sapiens, 144 h): 610 nM | IC50 (SW620 cells (K-Ras G12V); Homo sapiens, SW-620, 144 h): > 1000 nM
SMILES: C#Cc1c(F)ccc2cc(O)cc(-c3ncc4c(N5CCOC[C@@H](CC#N)C5)nc(OC[C@@]56CCCN5C[C@H](F)C6)nc4c3F)c12 (single isomer, unassigned) [Compound 14A]

IC50 [1]: 136 nM | IC50 [4]: 133 nM | IC50 [2]: 461 nM | IC50 [5]: 3.78 nM | IC50 (MKN-1 cells (K-Ras WT)): 28.8 nM | IC50 [6]: 21.8 nM | IC50 [7]: 5.74 nM | pIC50 [8]: 8.33 | IC50 (AGS cells (K-Ras G12D)): 10.2 nM | IC50 [9]: 2.76 nM | IC50 (SW620 cells (K-Ras G12V)): 10.9 nM | IC50 [10]: 2.15 nM
SMILES: C#Cc1c(F)ccc2cc(O)cc(-c3ncc4c(N5CC6COC(C6)C5)nc(OC[C@@]56CCCN5C[C@H](F)C6)nc4c3F)c12 (single isomer, unassigned) [Compound 84B, 4-(4-((1S,5R)-6-oxa-3-azabicyclo[3.2.1]octan-3-yl)-8-fluoro-2-(((2R,7aS)-2-fluorotetra-hydro-1H-pyrrolizin-7a(5H)-yl)methoxy)pyrido[4,3-d]pyrimidin-7-yl)-5-ethynyl-6-fluoronaphthalen-2-ol or 4-(4-((1R,5S)-6-oxa-3-azabicyclo[3.2.1]octan-3-yl)-8-fluoro-2-(((2R,7aS)-2-fluorotetra-hydro-1H-pyrrolizin-7a(5H)-yl)methoxy)pyrido[4,3-d]pyrimidin-7-yl)-5-ethynyl-6-fluoronaphthalen-2-ol]
IC50 [3]: 999 nM

Second part, the compound before the results:

SMILES: C#Cc1c(F)ccc2cc(O)cc(-c3ncc4c(N5CCOCC6CC65)nc(OC[C@@]56CCCN5C[C@H](F)C6)nc4c3F)c12 (stereo partly drawn) [Compound 33, 4-(4-(5-oxa-2-azabicyclo[5.1.0]octan-2-yl)-8-fluoro-2-(((2R,7aS)-2-fluorotetrahydro-1H-pyrrolizin-7a(5H)-yl)methoxy)pyrido[4,3-d]pyrimidin-7-yl)-5-ethynyl-6-fluoronaphthalen-2-ol]
IC50 ([1]; Homo sapiens, ASPC1, 144 h): 33.6 nM | IC50 [2]: 24.6 nM | IC50 [3]: 117 nM | IC50 (MKN-1 cells (K-Ras WT)): 3.11 nM | IC50 (AGS cells (K-Ras G12D); Homo sapiens, 144 h): 4.19 nM | IC50 (SW620 cells (K-Ras G12V); Homo sapiens, SW-620, 144 h): 2.05 nM

SMILES: C#Cc1c(F)ccc2cc(O)cc(-c3ncc4c(N5CCCOCC5)nc(OCC5(CN6CCOCC6)CC5)nc4c3F)c12 [Compound 64, 5-ethynyl-6-fluoro-4-(8-fluoro-2-((1-(morpholinomethyl)cyclopropyl)methoxy)-4-(1,4-oxazepan-4-yl)pyrido[4,3-d]pyrimidin-7-yl)naphthalen-2-ol trifluoroacetic acid]
IC50 ([1]; Homo sapiens, ASPC1, 144 h): 130 nM | IC50 (AGS cells (K-Ras G12D); Homo sapiens, 144 h): 24.5 nM | IC50 (SW620 cells (K-Ras G12V); Homo sapiens, SW-620, 144 h): 41.3 nM

SMILES: C#Cc1c(F)ccc2cc(O)cc(-c3ncc4c(N5CCCOCC5)nc(OCC56CCCN5CC(SC)C6)nc4c3F)c12 (centres unmarked) [Compound 100, 5-ethynyl-6-fluoro-4-(8-fluoro-2-((2-(methyl-thio)tetrahydro-1H-pyrrolizin-7a(5H)-yl)methoxy)-4-(1,4-oxazepan-4-yl)pyrido [4,3-d]pyrimidin-7-yl)naphthalen-2-ol]
IC50 ([1]; Homo sapiens, ASPC1, 144 h): 67.2 nM | IC50 [4]: 104 nM | IC50 [2]: 139 nM | IC50 [5]: 2.04 nM | IC50 [3]: 720 nM | IC50 (MKN-1 cells (K-Ras WT)): 21.1 nM | IC50 [6]: 17.7 nM | IC50 ([7]; Homo sapiens, SW-620, 2 h): 14.3 nM | IC50 (AGS cells (K-Ras G12D); Homo sapiens, 144 h): 5.4 nM | IC50 ([9]; Homo sapiens, 2 h): 2.63 nM | IC50 (SW620 cells (K-Ras G12V); Homo sapiens, SW-620, 144 h): 8.64 nM | IC50 [10]: 3.57 nM

SMILES: C#Cc1c(F)ccc2cc(O)cc(-c3ccc4c(N5CCCOCC5)nc(OC[C@@]56CCCN5C[C@H](F)C6)nc4c3F)c12 [Compound 147, 5-ethynyl-6-fluoro-4-(8-fluoro-2-(((2R,7aS)-2-fluorotetrahydro-1H-pyrrolizin-7a(5H)-yl)methoxy)-4-(1,4-oxazepan-4-yl)quinazolin-7-yl)naphthalen-2-ol]
IC50 ([1]; Homo sapiens, ASPC1, 144 h): 142 nM | IC50 ([7]; Homo sapiens, SW-620, 2 h): 11.2 nM | IC50 (AGS cells (K-Ras G12D); Homo sapiens, 144 h): 23.7 nM | IC50 ([9]; Homo sapiens, 2 h): 4.01 nM | IC50 (SW620 cells (K-Ras G12V); Homo sapiens, SW-620, 144 h): 17.5 nM

SMILES: C#Cc1c(F)ccc2cc(O)cc(-c3c(F)cc4c(N5CCCOCC5)nc(OC[C@@]56CCCN5C[C@H](F)C6)nc4c3F)c12 [Compound 148, 4-(6,8-difluoro-2-(((2R,7aS)-2-fluorotetra-hydro-1H-pyrrolizin-7a(5H)-yl)methoxy)-4-(1,4-oxazepan-4-yl)quinazolin-7-yl)-5-ethynyl-6-fluoronaphthalen-2-ol]
IC50 ([1]; Homo sapiens, ASPC1, 144 h): 72.5 nM | IC50 ([7]; Homo sapiens, SW-620, 2 h): 13 nM | pIC50 [8]: 7.89 | IC50 (AGS cells (K-Ras G12D); Homo sapiens, 144 h): 9.03 nM | IC50 ([9]; Homo sapiens, 2 h): 4.57 nM | IC50 (SW620 cells (K-Ras G12V); Homo sapiens, SW-620, 144 h): 13.9 nM

SMILES: C#Cc1c(F)ccc2cc(O)cc(-c3ncc4c(N5CCCOC(C)C5)nc(OC[C@@]56CCCN5C[C@H](F)C6)nc4c3F)c12 (stereo partly drawn) [Compound 149, 5-ethynyl-6-fluoro-4-(8-fluoro-2-(((2R,7aS)-2-fluorotetrahydro-1H-pyrrolizin-7a(5H)-yl)methoxy)-4-(2-methyl-1,4-oxazepan-4-yl)pyrido[4,3-d]pyrimidin-7-yl) naphthalen-2-ol]
IC50 ([1]; Homo sapiens, ASPC1, 144 h): 187 nM | IC50 ([7]; Homo sapiens, SW-620, 2 h): 14.9 nM | IC50 (AGS cells (K-Ras G12D); Homo sapiens, 144 h): 22.9 nM | IC50 ([9]; Homo sapiens, 2 h): 6.85 nM | IC50 (SW620 cells (K-Ras G12V); Homo sapiens, SW-620, 144 h): 26.2 nM
